In patent publication US20240002501A1 (Memorial Sloan Kettering, published 2024):

Experiments:
L1-CAM-Fc = target: T1, L1-CAM-Fc (UniProt P32004 20-1120, limits assumed); test: SPR (Biacore T100), L1-CAM-Fc immobilised on CM5 chip
T1 construct: also called antigen L1-CAM-Fc; not shown: Fc part
Method: In Vitro Binding Kinetics by Biacore T-100 Biosensor (GE Healthcare, Uppsala, Sweden). CM5 sensor chip (Research grade) and related reagents were purchased from Biacore USA (Piscataway, NJ). Antigen L1-CAM-Fc or L1-CAM-His was directly immobilized onto the CM5 sensor chip according to the manufacturer's instructions. Purified monoclonal antibodies (MoAbs) (mouse, chimeric IgG1 and IgG4, and humanized IgG1 and IgG4 versions of E71 and E72, and their IgG1n glycoforms) were diluted in HBS-EP buffer at varying concentrations (41.7˜666.7 nM) prior to analysis. Samples were injected over the sensor surface at a flow rate of 30 μl/min over 1 min. Association time was set for 1 min, dissociation time was set for from 5 min to 15 min. At the end of each cycle, the surface was regenerated using 50 mM NaOH at a flow rate of 50 μl/min over 1 min. The data were analyzed by the bivalent analyte model and default parameter setting for the rate constants using the Biacore T-100 evaluation software, and the apparent association on rate constant (kₒₙ), dissociation off rate constant (koff) and equilibrium dissociation constant (Kd=koff/kₒₙ) were calculated.
The binding of huE71-BsAb and huE72-BsAb to both target cells and effector cells was tested by FACS immunostaining. huE71-BsAb was equally efficient as parental huE71 in binding to L1-CAM(+) neuroblastoma BE(2)C, whereas the binding of huE72-BsAb to BE(2)C was half of that observed with huE71-BsAb (FIG. 38(A)). For binding to CD3(+) T cells, both huE71-BsAb and huE72-BsAb were less efficient compared to huOKT3 IgG1; around 20 fold weaker than huOKT3 (FIG. 38(B)). The reduced avidity of the light chain-anchored scFv of the BsAbs for T cells was attributable in part to the spatial constraints of this format, but is advantageous for minimizing cytokine release especially when target cells were not present.

[1] = target: T2, L1-CAM on L1-CAM(+) human tumor cells (human, UniProt P32004 20-1257); test: cell-based or functional assay
[2] = target: T2, L1-CAM on L1-CAM(+) human tumor cells; test: cell-based or functional assay; remark: listed apart in the source
T2 sequence (P32004 20-1257 limits assumed): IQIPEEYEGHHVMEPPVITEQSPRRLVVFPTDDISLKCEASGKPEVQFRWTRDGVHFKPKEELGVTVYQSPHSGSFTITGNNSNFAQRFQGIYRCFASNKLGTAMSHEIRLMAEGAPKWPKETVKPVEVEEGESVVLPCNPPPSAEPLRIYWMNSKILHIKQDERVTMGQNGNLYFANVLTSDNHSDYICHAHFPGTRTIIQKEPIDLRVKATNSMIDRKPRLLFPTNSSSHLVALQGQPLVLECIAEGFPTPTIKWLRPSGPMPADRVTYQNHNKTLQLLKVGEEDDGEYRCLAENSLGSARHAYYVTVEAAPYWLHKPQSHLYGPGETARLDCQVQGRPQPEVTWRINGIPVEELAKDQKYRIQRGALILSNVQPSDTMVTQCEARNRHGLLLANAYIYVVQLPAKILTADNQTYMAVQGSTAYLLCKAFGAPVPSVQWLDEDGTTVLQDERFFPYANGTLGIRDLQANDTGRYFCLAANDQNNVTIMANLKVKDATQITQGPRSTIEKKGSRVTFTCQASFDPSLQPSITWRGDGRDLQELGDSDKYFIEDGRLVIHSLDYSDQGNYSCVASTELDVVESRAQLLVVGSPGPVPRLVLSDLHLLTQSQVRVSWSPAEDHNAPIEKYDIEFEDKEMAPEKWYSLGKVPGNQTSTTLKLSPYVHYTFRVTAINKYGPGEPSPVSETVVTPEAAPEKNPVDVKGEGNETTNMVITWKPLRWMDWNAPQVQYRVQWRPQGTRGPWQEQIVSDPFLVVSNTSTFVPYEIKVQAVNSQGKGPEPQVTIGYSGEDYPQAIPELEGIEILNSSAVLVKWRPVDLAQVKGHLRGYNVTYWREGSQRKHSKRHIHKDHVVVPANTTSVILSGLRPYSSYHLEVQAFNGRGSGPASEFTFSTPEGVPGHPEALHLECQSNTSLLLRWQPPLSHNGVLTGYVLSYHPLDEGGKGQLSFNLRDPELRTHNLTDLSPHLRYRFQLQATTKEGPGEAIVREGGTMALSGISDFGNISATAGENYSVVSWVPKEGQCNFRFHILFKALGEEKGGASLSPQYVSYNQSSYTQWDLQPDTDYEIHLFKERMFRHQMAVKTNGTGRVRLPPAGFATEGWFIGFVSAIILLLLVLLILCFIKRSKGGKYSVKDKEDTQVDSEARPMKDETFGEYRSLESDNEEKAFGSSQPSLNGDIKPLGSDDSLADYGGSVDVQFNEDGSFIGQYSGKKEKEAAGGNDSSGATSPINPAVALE

Sequence of L1-CAM-Fc (P32004 20-1120 limits assumed): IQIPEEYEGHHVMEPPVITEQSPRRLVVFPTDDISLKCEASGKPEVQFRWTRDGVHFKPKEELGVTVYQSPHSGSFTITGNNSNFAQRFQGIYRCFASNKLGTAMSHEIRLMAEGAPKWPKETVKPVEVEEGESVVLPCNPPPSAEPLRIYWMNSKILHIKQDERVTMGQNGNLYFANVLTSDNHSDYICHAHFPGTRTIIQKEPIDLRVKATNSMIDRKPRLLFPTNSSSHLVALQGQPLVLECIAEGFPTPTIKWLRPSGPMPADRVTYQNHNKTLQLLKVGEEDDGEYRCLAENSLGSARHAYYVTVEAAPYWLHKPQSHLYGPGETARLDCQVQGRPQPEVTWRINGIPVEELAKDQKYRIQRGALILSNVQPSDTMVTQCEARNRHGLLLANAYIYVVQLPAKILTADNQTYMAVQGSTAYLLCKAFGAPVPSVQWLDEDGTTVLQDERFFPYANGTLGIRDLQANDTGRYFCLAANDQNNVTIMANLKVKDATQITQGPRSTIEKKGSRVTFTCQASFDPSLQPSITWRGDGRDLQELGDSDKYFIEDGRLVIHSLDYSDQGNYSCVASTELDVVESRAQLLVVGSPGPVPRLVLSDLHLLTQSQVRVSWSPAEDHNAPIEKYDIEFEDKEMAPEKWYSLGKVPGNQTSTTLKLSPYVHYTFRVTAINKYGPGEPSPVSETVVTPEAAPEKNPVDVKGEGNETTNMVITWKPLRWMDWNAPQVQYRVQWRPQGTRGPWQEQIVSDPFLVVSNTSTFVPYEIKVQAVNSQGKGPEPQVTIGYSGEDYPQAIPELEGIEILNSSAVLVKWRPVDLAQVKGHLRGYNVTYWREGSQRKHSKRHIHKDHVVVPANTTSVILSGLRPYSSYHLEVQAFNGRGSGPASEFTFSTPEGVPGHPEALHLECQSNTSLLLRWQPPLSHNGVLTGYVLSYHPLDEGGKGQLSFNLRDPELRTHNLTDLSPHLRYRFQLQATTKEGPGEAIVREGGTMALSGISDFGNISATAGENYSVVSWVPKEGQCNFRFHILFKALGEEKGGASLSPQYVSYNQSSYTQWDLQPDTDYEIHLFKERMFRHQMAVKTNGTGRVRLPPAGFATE

B1: huE71-BsAb (huE71-huOKT3) (bispecific antibody, human IgG1, kappa, N297A)
heavy: QVQLVQPGDELVKPGASVKLSCKASGYTFTSYWMQWVKQRPGQGLEWIGEINPSNGRTNYNEMFKSKAVLSVDKSVSTAYMQLSSLTAEDTAVYYCALYDGYYAMDYWGQGTLVTVSSASTKGPSVFPLAPSSKSTSGGTAALGCLVKDYFPEPVTVSWNSGALTSGVHTFPAVLQSSGLYSLSSVVTVPSSSLGTQTYICNVNHKPSNTKVDKRV[human IgG1 Fc with N297A K322A (EU numbers) not shown]
light: DIVMTQSPSSLAVSVGERVTMSCKSSQSLLYSSNQKNYLAWYQQKPGQSPKLLIYWASTRESGVPDRFSGSGSGTDFTLTISSVKAEDVALYYCQQYHSYPFTFGQGTKLEIKRTVAAPSVFIFPPSDEQLKSGTASVVCLLNNFYPREAKVQWKVDNALQSGNSQESVTEQDSKDSTYSLSSTLTLSKADYEKHKVYACEVTHQGLSSPVTKSFNRGECTSGGGGSGGGGSGGGGSQVQLVQSGGGVVQPGRSLRLSCKASGYTFTRYTMHWVRQAPGKCLEWIGYINPSRGYTNYNQKFKDRFTISRDNSKNTAFLQMDSLRPEDTGVYFCARYYDDHYSLDYWGQGTPVTVSSGGGGSGGGGSGGGGSGGGGSGGGGSGGGGSDIQMTQSPSSLSASVGDRVTITCSASSSVSYMNWYQQTPGKAPKRWIYDTSKLASGVPSRFSGSGSGTDYTFTISSLQPEDIATYYCQQWSSNPFTFGCGTKLQITR
notes: IgG-scFv format: huOKT3 scFv fused to the C-terminus of the huE71 light chain by a (G4S)3 linker; also called humanized E71-BsAb
L1-CAM-Fc
  Kd: 5150 pM
  koff: 0.000339 s⁻¹
  kon: 65800 M⁻¹ s⁻¹
[1]
  EC50 of T cell cytotoxicity (4 h 51Cr release, E:T 10:1) on BE(1)N neuroblastoma cells (L1CAM MFI 614): 16 pM
  EC50 of T cell cytotoxicity (4 h 51Cr release, E:T 10:1) on BE(2)C neuroblastoma cells (L1CAM MFI 608): 50 pM
  EC50 of T cell cytotoxicity (4 h 51Cr release, E:T 10:1) on BE(2)S neuroblastoma cells (L1CAM MFI 166): 251 pM
  EC50 of T cell cytotoxicity (4 h 51Cr release, E:T 10:1) on HTB24 breast CA cells (L1CAM MFI 431): 56 pM
  EC50 of T cell cytotoxicity (4 h 51Cr release, E:T 10:1) on HTB26 breast CA cells (L1CAM MFI 33): 56 pM
  EC50 of T cell cytotoxicity (4 h 51Cr release, E:T 10:1) on IMR32 LUC neuroblastoma cells (L1CAM MFI 285): 62 pM
  EC50 of T cell cytotoxicity (4 h 51Cr release, E:T 10:1) on MCF7 breast CA cells (L1CAM MFI 54): 158 pM
  EC50 of T cell cytotoxicity (4 h 51Cr release, E:T 10:1) on NB1691 neuroblastoma cells (L1CAM MFI 742): 31 pM
  EC50 of T cell cytotoxicity (4 h 51Cr release, E:T 10:1) on NMB7 neuroblastoma cells (L1CAM MFI 224): 56 pM
  EC50 of T cell cytotoxicity (4 h 51Cr release, E:T 10:1) on SKMEL5 melanoma cells (L1CAM MFI 269): 20 pM
  EC50 of T cell cytotoxicity (4 h 51Cr release, E:T 10:1) on SKMEL28 melanoma cells (L1CAM MFI 184): 150 pM
  EC50 of T cell cytotoxicity (4 h 51Cr release, E:T 10:1) on SKNMM LUC neuroblastoma cells (L1CAM MFI 598): 94 pM
  EC50 of T cell cytotoxicity (4 h 51Cr release, E:T 10:1) on SKNSH neuroblastoma cells (L1CAM MFI 23): 158 pM
[2]
  T cell cytotoxicity EC50, 4-hour 51Cr release assay, activated T cells (E:T ratio=10:1), IMR32-luciferase cell line: 62.9 pM
